# According to PubChem BioAssay (NCATS):
# Inconclusive results, whose numbers are uncertain, are shown with a selection of clear calls. Potencies of inconclusive entries are left out as doubtful fits. Calls of active or inactive are those of the source. Calls come from the whole dose curve; as a rule, active = well fitted inhibition curve with a large enough effect; inconclusive = small, poorly fitted or top-dose-only effect; inactive = no such curve, though single readings can be large or run the other way.
# Biological target: Rap guanine nucleotide exchange factor 3 (Homo sapiens) (UniProt O95398)
# Experiment: Confirmatory qHTS for antagonist of cAMP-regulated guanine nucleotide exchange factor 3 (EPAC1) (AID 1645880); note: nearly all actives have a fitted effect of over 55% in size;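 for activity, negative = inhibition: plate controls were DMSO only for no effect and full effect of the ATA control for full effect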
# Settings: EPAC1 Rap1B-BODIPY-GDP exchange, fluorescence; activity, negative = inhibition: at 115 µM (top of the series)
# Summary of the method: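 Released BODIPY-GDP fluoresces less than Rap1-bound BODIPY-GDP; the signal is followed at 480/540 nm at 5-min intervals over 30 min, after 5 min at room temperature. Reactions contain 100 nM EPAC1, 250 nM RAP1B-BODIPY-GDP and 50 uM GDP; results are normalized to ATA and DMSO.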
# Potency is the fitted concentration of half-maximal effect; tags give direction and shape of the fitted curve.
# UniProt O95398, sequence (O95398 whole entry, looked up): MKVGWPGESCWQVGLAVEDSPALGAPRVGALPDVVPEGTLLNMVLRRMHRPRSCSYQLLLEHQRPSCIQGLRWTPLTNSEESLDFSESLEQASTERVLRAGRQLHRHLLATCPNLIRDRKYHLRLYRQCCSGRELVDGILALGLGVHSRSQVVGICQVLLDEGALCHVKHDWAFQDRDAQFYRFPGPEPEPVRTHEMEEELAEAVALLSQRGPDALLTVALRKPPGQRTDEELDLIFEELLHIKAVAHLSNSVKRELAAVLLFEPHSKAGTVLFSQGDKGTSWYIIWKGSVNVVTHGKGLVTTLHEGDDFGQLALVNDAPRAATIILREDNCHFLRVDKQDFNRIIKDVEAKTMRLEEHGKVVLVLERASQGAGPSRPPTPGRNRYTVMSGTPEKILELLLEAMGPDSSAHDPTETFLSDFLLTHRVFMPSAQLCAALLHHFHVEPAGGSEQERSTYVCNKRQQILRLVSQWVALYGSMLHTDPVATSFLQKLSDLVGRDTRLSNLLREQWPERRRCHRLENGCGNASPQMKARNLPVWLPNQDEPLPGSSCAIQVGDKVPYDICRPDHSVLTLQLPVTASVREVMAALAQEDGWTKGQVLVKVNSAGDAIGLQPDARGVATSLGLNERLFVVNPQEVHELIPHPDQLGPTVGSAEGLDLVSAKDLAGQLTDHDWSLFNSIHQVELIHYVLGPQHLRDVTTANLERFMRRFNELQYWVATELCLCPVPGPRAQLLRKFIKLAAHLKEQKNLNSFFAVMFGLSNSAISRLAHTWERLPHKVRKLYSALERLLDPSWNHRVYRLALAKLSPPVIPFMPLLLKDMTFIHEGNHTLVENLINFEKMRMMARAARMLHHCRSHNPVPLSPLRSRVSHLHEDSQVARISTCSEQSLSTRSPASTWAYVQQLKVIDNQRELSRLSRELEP
Structure (SMILES),Potency,"activity, negative = inhibition"
COC1=CC(=O)C(C2CC(=O)c3c(O)cc(O)cc3O2)=CC1=O (stereo not given),"inconclusive [inhibitor, full curve]",–
CC(OC(=O)CNC(=O)COc1ccccc1)C(=O)N(C)Cc1ccccc1 (stereo not given),–,inactive: -6.29%
Cc1cc(C(=O)Cn2ncc(Cl)c(Cl)c2=O)c(C)n1CC(F)(F)F,"inconclusive [inhibitor, partial curve, poor fit]",–
Cc1ccc(NC(=O)COC(=O)Cn2c(C)csc2=O)c([N+](=O)[O-])c1,–,inactive: -5.73%
COC1=C(Nc2ccc(O)cc2)C(=O)c2ccccc2C1=O,"inconclusive [inhibitor, partial curve, poor fit]",–
Cc1cccc(CN2C(=O)c3ccccc3Sc3ccc(C(=O)N4CCCC4)cc32)c1,"inconclusive [inhibitor, partial curve]",–
COC(=O)c1cc2occc2n1Cc1ccc(F)cc1Cl,–,inactive: -43.1%
CC(C)CC(C(=O)NC1CCCCC1)N(Cc1ccccc1)C(=O)c1snc(C(N)=O)c1N (stereo not given),–,inactive: -35.6%
C=CCNC(=O)C1CC1(c1cccc(C)c1)c1cccc(C)c1 (stereo not given),–,inactive: -18.4%
CCn1c2ccccc2c2nnc(SCC(=O)N(C)C3CCS(=O)(=O)C3)nc21 (stereo not given),–,inactive: -7.06%
CC1(C)CC[C@]2(C(=O)n3ccnc3)CC[C@]3(C)[C@H](C(=O)C=C4[C@@]5(C)C=C(C#N)C(=O)C(C)(C)[C@@H]5CC[C@]43C)[C@@H]2C1,active: 14.1 µM,–
O=C1C=C(NCc2ccccc2)c2ccccc2C1=O,"inconclusive [inhibitor, full curve]",–
COc1ccc(O)c(/C=N/NC(=O)c2ccc(N3CCCC3=O)cc2)c1,"inconclusive [inhibitor, partial curve]",–
Cc1ccc(S(=O)(=O)Nc2ccc3cc([N+](=O)[O-])ccc3c2[N+](=O)[O-])cc1,active: 21.3 µM,–
Cc1cccc2sc(N(CCCN(C)C)C(=O)CCS(=O)(=O)c3ccccc3)nc12,"inconclusive [inhibitor, partial curve, poor fit]",–
N#CCC(=O)Nc1ccc(C(=O)OCC(=O)Nc2ccc3ccccc3c2)cc1,"inconclusive [inhibitor, partial curve]",–
CCC(=O)N(CCC(c1ccccc1)c1ccc2c(c1)OCO2)Cc1ccc(OC(C)C)cc1 (stereo not given),"inconclusive [inhibitor, partial curve]",–
COCCn1c(SCC(=O)c2c(C)[nH]c3ccccc23)nc2cc(C(=O)NC(C)C)ccc2c1=O,"inconclusive [inhibitor, single point]",–
Cc1cccc(CN2Cc3cccc4c3[C@H](C=CC4)CC2=O)c1,"inconclusive [inhibitor, partial curve, poor fit]",–
C=CCn1c(=O)/c(=C/c2ccc(C)o2)s/c1=C(/C#N)C(=O)c1ccccc1,"inconclusive [inhibitor, partial curve]",–

Structure (SMILES),Potency,"activity, negative = inhibition"
O=C(Nc1cc(C(F)(F)F)ccc1Cl)c1nc2ccccc2nc1N1CCCCC1,"inconclusive [inhibitor, partial curve, poor fit]",–
COc1ccc(C(=O)Nc2cccc(/C=C(\CCC(=O)O)c3nc4ccccc4s3)c2)cc1,active: 21.3 µM,–
CCc1nnc(NS(=O)(=O)c2ccc(NC(=S)NC(=O)/C=C/c3ccccc3)cc2)s1,active: 67.5 µM,–
CCO[C@H]1OC(C(=O)NCc2ccccc2)=C[C@@H](c2ccc(C(F)(F)F)cc2)[C@@H]1CCCO,"inconclusive [inhibitor, partial curve]",–
Cc1ccc(C2N(c3cccc(Cl)c3)C(=O)N3CCCN23)cc1 (stereo not given),–,inactive: -32.7%
Nc1ccc(SC(F)(F)F)cc1C(=O)c1ccccc1,"inconclusive [inhibitor, partial curve]",–
COc1ccc(-c2oc3cccnc3c2C#CCO)cc1,–,inactive: -20%
O=c1c2cc([N+](=O)[O-])cc([N+](=O)[O-])c2[nH]n1-c1ccccc1,active: 35.5 µM,–
CCCCN1C(=O)C(NC(=O)c2ccc(C(C)(C)C)cc2)(C(F)(F)F)C(C(=O)OC)=C1C (stereo not given),"inconclusive [inhibitor, partial curve, poor fit]",–
CC(C)(C)C(=O)NC(Nc1cccc2cccnc12)C(Cl)(Cl)Cl (stereo not given),"inconclusive [inhibitor, partial curve, poor fit]",–
O=C(CCC(=O)N1CCSc2ccccc21)NCc1cccc(Cl)c1,–,inactive: -18.4%
O=c1cc(CSc2nc3ccccc3c(=O)[nH]2)c2ccc(O)cc2o1,"inconclusive [inhibitor, partial curve]",–
Cc1c([N+](=O)[O-])cnc(Sc2ccccc2)c1[N+](=O)[O-],"inconclusive [inhibitor, partial curve]",–
Cc1ccc(-c2c3c(=O)n(C)c(=O)n(C)c3c3c(C(F)(F)F)nc4ccccc4n23)cc1,–,inactive: -8.34%
CCCc1nc2c(=O)n(C)c(=O)nc-2n(C)n1,"inconclusive [inhibitor, full curve]",–
COc1ccc(C2CC(=O)c3c(O)cc(O)cc3O2)c(CC=C(C)C)c1OC (stereo not given),"inconclusive [inhibitor, partial curve]",–
C#CCN(Cc1nc(N2CCOCC2)c2ccc(Cl)cc2n1)Cc1ccco1,"inconclusive [inhibitor, partial curve]",–
Cn1cc([C@]2(O)C(=O)Nc3ccc(F)cc32)c2ccccc21,–,inactive: -26%
C[C@H]1CN([C@@H](C)CO)C(=O)c2cccc(NC(=O)C3CC3)c2O[C@H]1CN(C)S(=O)(=O)c1ccccc1,"inconclusive [inhibitor, partial curve, poor fit]",–
CCc1ccc(S(=O)(=O)Nc2cc3c(cc2C)n(C)c(=O)n3C)cc1,–,inactive: -24.5%
